Measurements from article PMC4336329 (PLoS ONE, 2015).
The campaign covered roughly 310,000 compounds. About 2,200 (0.71%) showed an effect of 50% or more. The effect is printed as a negative number. Some of the results follow.

What follows are compounds tested against human ether-à-go-go-related gene (hERG) potassium channel (human, UniProt Q12809) (assay: primary screen, population patch clamp on CHO cells stably expressing hERG).
Sequence of human ether-à-go-go-related gene (hERG) potassium channel (Q12809 whole entry, looked up): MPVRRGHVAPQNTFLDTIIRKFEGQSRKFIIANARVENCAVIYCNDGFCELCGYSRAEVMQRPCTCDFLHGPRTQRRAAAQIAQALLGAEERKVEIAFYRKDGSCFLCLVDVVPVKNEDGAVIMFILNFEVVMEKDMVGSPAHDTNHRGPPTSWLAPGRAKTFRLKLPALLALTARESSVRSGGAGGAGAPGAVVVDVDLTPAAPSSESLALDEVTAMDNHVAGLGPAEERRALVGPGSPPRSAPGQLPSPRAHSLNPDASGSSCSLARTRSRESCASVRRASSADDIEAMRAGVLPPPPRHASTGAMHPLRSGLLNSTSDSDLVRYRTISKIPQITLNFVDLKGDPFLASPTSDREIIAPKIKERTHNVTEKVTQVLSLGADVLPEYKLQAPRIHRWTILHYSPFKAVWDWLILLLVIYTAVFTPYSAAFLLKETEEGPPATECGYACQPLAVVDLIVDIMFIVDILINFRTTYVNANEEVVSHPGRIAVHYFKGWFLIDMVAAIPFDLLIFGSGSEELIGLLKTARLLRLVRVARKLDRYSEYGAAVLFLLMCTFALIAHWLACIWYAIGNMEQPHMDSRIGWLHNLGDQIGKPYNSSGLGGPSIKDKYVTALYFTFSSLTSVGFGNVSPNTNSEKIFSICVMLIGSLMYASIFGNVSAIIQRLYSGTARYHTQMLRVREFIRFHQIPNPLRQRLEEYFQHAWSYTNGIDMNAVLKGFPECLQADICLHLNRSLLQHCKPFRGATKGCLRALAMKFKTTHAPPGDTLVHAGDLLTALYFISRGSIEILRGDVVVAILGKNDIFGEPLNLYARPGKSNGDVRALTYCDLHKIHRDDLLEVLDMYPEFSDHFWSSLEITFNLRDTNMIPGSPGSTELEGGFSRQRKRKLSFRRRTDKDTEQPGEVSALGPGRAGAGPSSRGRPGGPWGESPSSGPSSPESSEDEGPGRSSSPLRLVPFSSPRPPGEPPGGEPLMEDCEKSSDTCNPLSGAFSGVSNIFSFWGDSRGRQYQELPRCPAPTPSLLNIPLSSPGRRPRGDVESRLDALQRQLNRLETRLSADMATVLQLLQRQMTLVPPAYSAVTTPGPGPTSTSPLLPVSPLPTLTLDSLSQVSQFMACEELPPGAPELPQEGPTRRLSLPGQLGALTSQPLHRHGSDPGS

| SMILES | hERG current change (%, negative = inhibition) at 1uM |
| --- | --- |
| CCCNC(=O)c1cnc(Sc2ncc(C(F)(F)F)cc2Cl)n1C | -6.83% |
| COC(=O)c1cc(OC)c(OC)cc1NC(=O)Cn1nnc(-c2ccccc2Cl)n1 | -11.8% |
| COc1cc(NC(=O)CN2C(=O)COc3ccc(S(=O)(=O)N4CCCCC4)cc32)cc(OC)c1 | 9.14% |
| CC(=O)N(CCP(=O)(c1ccccc1)c1ccccc1)Cc1ccco1 | 3.84% |
| O=C(NCCO)C(=O)NCC(c1ccc2c(c1)OCO2)N1CCN(c2ccc(F)cc2)CC1 (centres unmarked) | 11.4% |
| CCOC(=O)N/N=C\C=C\c1ccco1 | 10.7% |
| Cc1cccc(-c2nnc(SCc3nc4ccccc4[nH]3)n2Cc2ccco2)c1 | 7.8% |
| Cc1nn(-c2ccccc2)c(-n2cccc2)c1C(=O)O | 7.27% |
| O=C(Cc1n[nH]c(=O)c2ccccc12)N/N=C/c1cc2c(cc1Cl)OCO2 | 15.1% |
| Cc1cc(=O)c(C(=O)O)nn1-c1ccccc1F | 14.8% |
| CCCCn1c(N)c(N(CC)C(=O)CSc2nnc(-c3ccco3)n2CC)c(=O)[nH]c1=O | 19.2% |
| CCCCCCC(C)n1[nH]c(=O)c2c(C)cc(=O)[nH]c21 (centres unmarked) | 1.76% |
| CC(=O)Nc1ccc(S(=O)(=O)N2CCN(C)CC2)cc1 | 0.825% |
| Cc1cccc(NC(=O)c2c([N+](=O)[O-])c(C(C)(C)C)nn2C)c1 | 4.04% |
| O=C(O)CCSc1nnc(SCC(=O)NCC(F)(F)F)s1 | 1.24% |
| CC(C)Cn1c(N)c(C(=O)COC(=O)c2cc(C(F)(F)F)nc3c(C(F)(F)F)cccc23)c(=O)n(C)c1=O | 7.94% |
| N/C(Cc1ccccc1Sc1ccccc1)=N\O.O=C(O)/C=C\C(=O)O | 4.44% |
| COc1ccc(Cc2nc3c4c(ncn3n2)Oc2c(ccc3ccccc23)C4c2ccc(OC)c(OC)c2)cc1 (centres unmarked) | 18.3% |
| CCNc1nc(NC(C)(C)C)nc(N(CC)n2cnnc2)n1 | 3.91% |
| COc1ccc(NC(=S)N2CCCC2c2ccc(OC)c(OC)c2)cc1 (centres unmarked) | 9.64% |
| CNS(=O)(=O)c1cc(NC(=O)CCCNC(=O)c2ccc(Cl)cc2)ccc1C | 21.5% |
| CCN(CC)C(=O)COc1ccc(-c2ccccc2)cc1 | -19.7% |

| SMILES | hERG current change (%, negative = inhibition) at 1uM |
| --- | --- |
| O=C(O)CCC(=O)N1CCc2cc(S(=O)(=O)NCc3ccc(Cl)cc3)ccc21 | 10.1% |
| O=C(Nc1nnc(-c2ccco2)o1)C1CC1 | 14.8% |
| CCOc1cccc2sc(N(CCN(CC)CC)C(=O)c3ccc(S(=O)(=O)N4CCCCC4)cc3)nc12.Cl | -31.8% |
| O=C(NCc1ccco1)c1ccccc1-c1ccccc1 | 2.18% |
| O=C(Oc1c(CN2CCOCC2)cc(Cl)c2cccnc12)c1ccc(F)cc1 | -13.5% |
| O=C(CCC1CCCN(Cc2ccc(O)c(Cl)c2)C1)NCc1ccccc1F (centres unmarked) | -5.03% |
| COc1ccc(N2CCN(c3ncnc4scc(-c5ccc(F)cc5)c34)CC2)cc1 | 4.67% |
| C(=N\N1CCN(C2c3ccccc3-c3ccccc32)CC1)/c1cccnc1 | 7.06% |
| COc1ccc(-c2[nH]ncc2-c2nc(C)cs2)c(O)c1 | 18.3% |
| COc1cc(C)ccc1OCc1cc(C(=O)N2CCCCCCC2)no1 | 8.18% |
| Cc1oc(-c2ccc(Cl)cc2)nc1CS(=O)CC(=O)NCCCN1CCOCC1 (centres unmarked) | 13.2% |
| CCCOC(=O)c1cc(-c2ccc(/C=C3/C(=O)N(C)C(=O)C(C#N)=C3C)o2)ccc1Cl | 9.54% |
| COc1ccc(OC)c(/C=N\NC(=O)c2cc3c(ccc4ccccc43)o2)c1 | 2.46% |
| COc1ccc(N2CCN(CCCNC(=O)C(=O)c3c(C)n(C)c4ccccc34)CC2)cc1 | -9.85% |
| Oc1ccc(-c2[nH]ncc2-c2ccc(Cl)cc2)c(O)c1 | 2.03% |
| CCOc1ccc(C(=O)N2CCN(CCc3ccccc3)CC2)cc1OCC | -77.5% |
| CCOc1ccc(/C=C/C(=O)NCCc2ccc(OC)c(OC)c2)cc1 | 7.83% |
| CC(=O)c1ccc(-c2nc3c4ccccc4ccn3c2C(C)=O)o1 | 12.9% |
| Cc1cc(C(=O)OCC(=O)NC2(C#N)CCCCC2)c(C)o1 | 9.27% |
| CCCN(CCC)CCNC(=O)C1CCN(Cc2nc(-c3ccc(Cl)cc3)oc2C)CC1 | -17.9% |
| Cn1c(Cn2nnc3ccccc32)nnc1SCC(N)=O | 15.9% |
| Cc1n[nH]c(=O)c2c(NC(=O)COC(=O)c3cccc(OC(F)F)c3)oc(C)c12 | -2.63% |

| SMILES | hERG current change (%, negative = inhibition) at 1uM |
| --- | --- |
| CCOC(=O)CCSc1nc2c(c(C(F)(F)F)c1C#N)CCC2 | 12.6% |
| Cc1c(NC(=O)CN2C(=O)NC(C)(c3ccc4c(c3)OCCO4)C2=O)c(=O)n(-c2ccccc2)n1C (centres unmarked) | 19.6% |
| CC1CCCCC1NC(=O)CSc1nncs1 (centres unmarked) | 14.5% |
| CCNS(=O)(=O)c1ccc(CCC(=O)Nc2ccccc2)cc1 | 7.45% |
| COC(=O)[C@@H](Cc1ccccc1)NC(=O)NCCc1ccccc1 | 13.7% |
| O=C(Nc1ccc(F)cc1)c1cccnc1N1CCOCC1 | 17.9% |
| N#Cc1c(N)c(C(=O)c2ccc(Cl)cc2)n2c1CCC2 | 14.2% |
| CS(=O)(=O)c1ccc2nc(NC(=O)c3ccco3)sc2c1 | 8.63% |
| COc1ccc(CN2C(=O)NC3(CCCC3)C2=O)cc1F | 0.331% |
| C=CCC(=O)OCCCCCCOc1ccc(C(=O)O)cc1 | -5.04% |
| CCn1c(SCC(=O)N2CCCCC2C)nc2c1c(=O)n(C)c(=O)n2C (centres unmarked) | 11.2% |
| CCN(CC(=O)NCC1CCCO1)S(=O)(=O)c1ccc(Cl)cc1 (centres unmarked) | 10% |
| CC1CN(C(=O)c2ccc(COCC(F)(F)F)o2)CC(C)O1 (centres unmarked) | 14.1% |
| Cc1oc(-c2cccc(Cl)c2)nc1CS(=O)(=O)CC(=O)NC1CC1 | 5.45% |
| CCN(CC(=O)Nc1c(F)cccc1F)C(=O)Cc1ccc(OC)c(S(=O)(=O)N2CCOCC2)c1 | 15.5% |
| O=C(O)c1ccccc1C(=O)c1cccc2ccccc12 | 13.6% |
| O=C(Cc1sc(-c2ccccc2)nc1-c1ccccc1)Nc1ccccc1 | 12.9% |
| COC(=O)c1sc2nc(-c3ccco3)ccc2c1N | 3.04% |
| O=C(/C=C/Nc1cccc(C(F)(F)F)c1)c1ccc(Oc2ncccn2)cc1 | 18.9% |
| O=C(Nc1ccc(Cl)cn1)c1ccc(-c2ccc(Cl)c(Cl)c2)o1 | 11.8% |
| COc1ccc(S(=O)(=O)N(C)CC(=O)N2CCC(C(N)=O)CC2)cc1 | 9.98% |
| CCOc1cc(C2C(C#N)=C(N)Oc3n[nH]c(-c4ccccc4)c32)ccc1O (centres unmarked) | 5.4% |

| SMILES | hERG current change (%, negative = inhibition) at 1uM |
| --- | --- |
| Cc1cccc(OCCCn2c(CCNC(=O)C(C)C)nc3ccccc32)c1 | -5.07% |
| CNC(=O)Nc1cccc2cccnc12 | 3.5% |
| CCC(C)N=Cc1c(NCc2ccco2)nc2c(C)cccn2c1=O (centres unmarked) | 8.53% |
| O=[N+]([O-])c1cc(C(F)(F)F)ccc1Sc1nccn1Cc1ccccc1 | 3.73% |
| Cc1ccc(C)c(N(C(=O)Cn2nnc3ccccc32)C(C(=O)NCc2ccco2)c2ccncc2)c1 (centres unmarked) | 2.36% |
| O=C1c2ccccc2-c2c1cccc2C(=O)N(CCO)CCO | 8.69% |
| COC(=O)c1ccc(-c2ccc([C@H]3[C@H]4C=CC[C@@H](C)[C@@H]4C(=O)N3Cc3ccccc3)c(F)c2)cc1 | 17% |
| CC(=O)c1ccccc1OC(=O)c1ccc([N+](=O)[O-])o1 | 20.1% |
| CCn1nnnc1SCC(=O)N1CCN(c2ccccc2)CC1 | -3.52% |
| COc1ccc(-c2cc(=O)oc3cc(OCC(=O)NCCCn4ccnc4)ccc23)cc1 | -12.8% |
| Fc1cccc(Nc2ncnc3[nH]ncc23)c1 | 14.9% |
| COCCCNC(=O)Nc1ccc(F)cc1F | 10% |
| CC(=O)O[C@@]12CO[C@@H]1C[C@@H](O)[C@@]1(C)C(=O)[C@H](O)C3=C(C)[C@@H](OC(=O)[C@H](O)[C@@H](NC(=O)c4ccccc4)c4ccccc4)C[C@@](O)([C@@H](OC(=O)c4ccccc4)C12)C3(C)C (some centres unmarked) | 13.6% |
| CC(C)c1ccc(NC(=O)COc2nncc3ccccc23)cc1 | 10.2% |
| Cc1ccc(NC(=O)NCC2CCN(Cc3cc(C)ccc3Cl)CC2)c(C)c1 | -27.3% |
| COc1ccc(S(=O)(=O)N(CC(=O)NCc2ccco2)c2ccc(F)cc2)cc1 | 6.13% |
| CC(=O)c1ccc(NC(=O)Oc2ccccc2)cc1 | 0.966% |
| Cc1ccc(SCc2cc(=O)n3[nH]c(C)nc3n2)cc1 | 11.3% |
| O=C(COc1ccc(Cl)cc1Cl)Nc1ccc(-c2ccc(N3CCOCC3)nn2)cc1 | 14.5% |
| Cc1c(O)c(CN2CCCC2)cc2c3c(c(=O)oc12)CCC3 | 15.9% |
